This note sets out measurements from the supplement of paper PMC11417369.

± gives the standard deviation of the averaged measurements. Some of the results follow.

This test deals with PfAP2-G AP2 domain (GST-tagged). Description: gcPBM binding intensity (ln(normalized median fluorescence intensity)); higher = stronger DNA binding. Put shortly:
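Binding intensity is the highest Masliner-normalised natural-log median intensity over replicate spots in either probe orientation. To obtain it, GST-tagged P. falciparum DNA-binding domains made in E. coli were incubated for 1 h on an Agilent 4 × 180k array of primer-extended double-stranded 36-bp intergenic genomic probes plus negative controls. Detection used Alexa488 anti-GST antibody with scanning at 488 nm.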
“AAGTATTATTATAAGACACACATGTATATAAGTATA [CACACA_site1479]”: the “gcPBM binding intensity (ln)” value was determined as 10.2 ± 0.16. With “TTAAGTATTTTACGTACACACTTATAAATGTACAGG [CACACA_site6012]”, the “gcPBM binding intensity (ln)” value worked out at 11.7 ± 0.93. With “CTATTAAAAAAATTATGTACACAACGTCTCTATATA [XGTACX_site4813]”, the “gcPBM binding intensity (ln)” value turned out to be 11.6 ± 0.88. As for “TACATTTTTATTTTTACACACATATATATATATATA [CACACA_site1021]”, the “gcPBM binding intensity (ln)” value came out at 10.2 ± 0.28. Then “ATAAAAATGGATGAATATAAAAAAAAAAAAATATAT [CACACA_negctrl_site182]”, with 9.64 ± 0.071; and “GAATATATAAGAACAAATATGGCTTAGAAAAAAAAA [TGCATGCA_negctrl_site451]”, with 9.89 ± 0.071. As for “TACAAAAGTTAAACATGTACTTAATTATATGTTTTT [XGTACX_site2852]”, the “gcPBM binding intensity (ln)” value was determined as 11.1 ± 0.66. Then “CTAAAAATTTTAATTGCACACCACGTTGGACTATTT [CACACA_site1489]”, with 10.7 ± 0.47; and “TTACACTAAATATGTTCACACATTTTTTCCATCATA [CACACA_site4647]”, with 10.06 ± 0.042; and TATAAGGCAATAATAGTGCACTAAGATATATAATGA, with 10.3 ± 0.24. Then “ATATATTACAAATGGAGTACTAAAAATATTCTATAT [XGTACX_site6669]”, with 11.5 ± 0.87; and “TCAAGTTTATATTAACTATTTATGAAAAAAAAAAGA [CACACA_negctrl_site902]”, with 9.72 ± 0.21; and “CCCACAGACGGACACACACACACATATATATATATA [CACACA_site4352]”, with 11.6 ± 0.93. Regarding “TATATATATGGGTTTACACACAATAATGAATTAAAA [CACACA_site915]”, the “gcPBM binding intensity (ln)” value was determined as 9.99 ± 0.11. For “CCCATGCATTTTTGCACACACATATATTTATAAATA [CACACA_site6785]”, the “gcPBM binding intensity (ln)” value amounted to 10.3 ± 0.3. For “TGCAAATTTAACAAAAAAAAAAAAAAAAAAAAAAAA [GTGCAC_negctrl_site64]”, the “gcPBM binding intensity (ln)” value is 9.47 ± 0.39. As to “TCTACTACTTAATGGAGTACTAGCTTCATAATATTA [XGTACX_site7030]”, the “gcPBM binding intensity (ln)” value turned out to be 11.3 ± 0.98. Turning to “TGAACACAGACAAATACACACAAAAAAAATAAATAA [CACACA_site4298]”, the “gcPBM binding intensity (ln)” value was determined as 10.1 ± 0.14. For “TATTATGTATAAAGAAGTACTTTTTTTTTTTTTTTC [XGTACX_site201]”, the “gcPBM binding intensity (ln)” value was determined as 11.3 ± 0.82. Then “AAAAAACAAAAACACACACACACATATATATATATA [CACACA_site3654]”, with 9.93 ± 0.29. To “ATCACTAACATGTGTTGTACATAAAATTTGTTTGTT [XGTACX_site2207]” belongs 11.4 ± 0.82; to “TTAACTTTTATATAGTGTACAAATAAATGCATACAG [XGTACX_site5958]”, 11.1 ± 0.73; to “TTATTATTTAACATGTGGACACAAAAATTTAAGGGT [XGTACX_site4638]”, 11.4 ± 0.82. Then ATGTTTTAATGAGGTTTGCACTATATTTTAATGAAC, with 10.08 ± 0.014. For “AACATATATACAGTAACACACACAAAAAAATATGAA [CACACA_site9323]”, the “gcPBM binding intensity (ln)” value worked out at 10.2 ± 0.21. Then “GATTATTTAAAATATACATGCGCGCACATATGCATA [TGCATGCA_site630]”, with 10.5 ± 0.19; and “TGCATTTTCCTATTTGCATGCAATTAAAATATAGAA [TGCATGCA_site862]”, with 10 ± 0.32.

As to “AAAAGAATTTGAAGTCGTACAATATCTATTATATGA [XGTACX_site8275]”, the “gcPBM binding intensity (ln)” value turned out to be 11.2 ± 0.78. To “TTTTACAATAACAATACACACTATAATATATATATA [CACACA_site4893]” belongs 10 ± 0.2; to “CATATATATAAATACACACACACACCCCTTATAATT [CACACA_site4064]”, 10.5 ± 0.3; to “TAGGAGCCGAAACACACACACAAAAAAAAAAAAAAA [CACACA_site1731]”, 9.82 ± 0.45. For “AAGATAAAATTATGCACACATACGAATAATTTTAAA [CACACA_site1705]”, the “gcPBM binding intensity (ln)” value came out at 10 ± 0.14. Then “TTTCTCAATTCTTAGAGTACATAAATAAAAAAAAAA [XGTACX_site7639]”, with 11.4 ± 0.95; and “ATATAATATACTTATTGTACTTATTTAAAATACTAA [XGTACX_site4266]”, with 11.3 ± 1. Then “AAAAAATGGCTAGTTTGTACACAAAAGTTATTGCAT [XGTACX_site5381]”, with 11.1 ± 0.67; and “AAAAAAAAATAAAAATGTACATATATAATATTATAT [XGTACX_site71]”, with 11.1 ± 0.56. In the case of “TAATTCTTTATAATAACACACATTCATATACAATAA [CACACA_site2499]”, the “gcPBM binding intensity (ln)” value came to 9.9 ± 0.042.

On to “GGTATTACCTGTTTGTTATGTAGATGTTGCTAGGAT [GTGCAC_negctrl_site736]”, for which the “gcPBM binding intensity (ln)” value is 10.02 ± 0.021. Take “AAGAAAAACTAAAGAGTTCTGTTCATATCTCTTTGG [TGCATGCA_negctrl_site549]”: the “gcPBM binding intensity (ln)” value amounted to 9.41 ± 0.4. Then “ATACCAATAATATACATACACACATAAAGGTTTATA [CACACA_site314]”, with 9.955 ± 0.064; and “TATATCAAATTCTAAACATGCACAAAAAACTTATAA [TGCATGCA_site510]”, with 9.94 ± 0.057. Then “AAGGAAAAACCATTCGCACACACACCGAATATATAA [CACACA_site8403]”, with 10.1 ± 0.14; and “TTTACATTTAATAAAAGTACTTATTTCATATACATA [XGTACX_site659]”, with 11.2 ± 0.57; and “ACTTAAATAATACATACACACATGTACATACAGAAA [CACACA_site1595]”, with 11.2 ± 0.62.
